The other results are listed elsewhere or left out. Binding of human antibodies (heavy:light variable regions, tested as scFv in one mRNA-display pool) to influenza hemagglutinin, with or without the stem antibody CR9114 bound first. Score = (mean enrichment − median) / interquartile range of that screen; higher = more enriched, 0 = typical non-binder. Active = above the paper's cut-off per screen: stems 28; unblocked H1 Solomon Islands 5, H1 Michigan 3, H3 5, H5 19, H7 2.85, both B 5; blocked 9, 7, H5 10, H7 10, B Phuket 10, B Lee 11.5. Scores are scaled within each screen and are no affinities; replicates correlate at about 0.6 to 0.9, and antibodies rare in the pool are noisier.
Tests used:
[1] = molecular target: H1 HA stem construct (mini-HA #4900); assay: mRNA display binding score; higher = more enriched on the antigen; settings: antigen blocked with: nothing
Method: (§1)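 A pool of natively paired antibodies, displayed as scFv on mRNA, was selected once on antigen-coated beads and sequenced before and after; two replicates.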

[2] = molecular target: H3 HA stem construct (H3ssF); assay: as above; settings: antigen blocked with: nothing
Method: as §1

Binder | mRNA display binding score [1] | mRNA display binding score [2]
C8-B04 (protein) chain 1: VQLQESGPGLVKPSETLSLTCTVSGGSIGNYYWNWVRQPPGKGLEWIGYVYNNGGTSYNTSLKSRVTISVDTSKKQFSLRLSSVTAADTAMYYCARLGFGEVFSFKRYYYYGLDVWGRGTTVTVSS chain 2: DIVMTQSPDTLSLSPGERATLSCRASQSVTSSSLAWYQQKVGQSPRLLIYGASTRATGTPARFSGSGSETDFTLTISSLEPEDFAVYYCQQYGSSVLTFGPGTKVDIK | inactive: 1.15 | inactive: 0.418
antibody 2F04 (protein) chain 1: EVQLLESGGGLVQPGGSLRLSCAASGFTFSAYSMSWVRQARGKGLEWVSGIGGSGVSIHYADSVKGRFTISRDNSKNTVYLQMNSLRAEDTAVYYCAKSRAWDLKGWFDPWGQGTLVTVSS chain 2: DIVMTQSPDSLAVSLGERATINCKSSQTVLLNSNNKNSLVWYQQKPGQPPKLLIYWASTRESGVPDRFSGSGSGTDFTLTISSLQVEDVAVYYCQQYYSAPLTFGGGTKVEIK | inactive: 0.527 | active: 47.9
31.a.55 (protein) chain 1: EVQLLESGGGLVKPGGSLRLSCEASEFTFSSHAMSWVRQAPGKGLEWVSAISGNGGSTYYADSVKGRFTISRDNSKNTLYLQMNSLRAEDTALYYCTKDRSPPVFDLMPGYYSSFYYMDVWGKGTTVTVSS chain 2: EIVMTQSPATLSVSPGERATLSCRASQSVRGNLAWYQQKPGQAPRLLIYGASTRATDIPARFSGSGSGTEFTLTISSLQSEDFAVYYCQQYNHWLRTFGQGTKLEIK | active: 501 | active: 207
051-09-5D01 (protein) chain 1: QVQLVESGGGVVQPGRSLRLSCAASGFAFSNYAMHWVRQAPGKGLESVAVVLYDGNSEYYADSVKGRFTISRDTSKNLVYLQMNSLRPEDTAVYYCVKDSEYADYDPVYWGQGTLVTVSS chain 2: DIQMTQSPSTLSASVGDRVTITCRASHSVSTWLAWYQQKPGKAPKPLIYKASNLESGVPSRFSGSGSGTEFTLTISSLQPDDFATYYCKQYNRYLWTFGQGTKVEIK | inactive: -0.703 | inactive: -0.43
01.ad.01 (protein) chain 1: EVQLAESGGGLVQPGGSLRLSCAASGFSFHSYAMNWVRQAPGKGLEWVSGTGGSGLSTYYADSVKGRFTISRDNSKNTLYLQMNRLRAEDTAVYYCAKSPSWDKNFYDSGSYYFYFDYWGQGNLVTVSS chain 2: EIVLTQSPVSLSLSPGERAALSCRASQSLSSRFLAWYQQKPGQAPRLLIHGASSRATGIPDRFSGSGSGTDFTLTISRLEPEDFAVYYCQQYGSAPLTFGGGTKVEMK | inactive: 0.226 | active: 329
FluA-152 (protein) chain 1: QVTLRESGPALVKPTQTLTLTCTFSGFSLSTSGMCVSWIRQPPGKALEWLARIDWGDDKYYSTSLKTRLTISKDTSKNQVVLRMINMDPVDTATYYCARTHAERLYTSDYYYYAMDVWGQGTTVTVSS chain 2: DIQMTQSPSSLSASVGDRVTITCRASQSISNYLNWYQQKPGKAPKLLIYVASNLQTGVPSRFSGSGSGTDFSLTISSLQPEDFATYYCQQTYSSLTFGQGTRLAIK | inactive: 1.05 | inactive: 0.32
antibody 2E03 (protein) chain 1: VQLVESGGGLVQPGRSLRLSCAASGFSFYDYAMSWVRQAPGRGLEWVGFIRSYTYGGTTEYAASVRGRFTISRDDSNNIAYLQMNSLKTEDTAVYYCTNLGSSWLNAGLYYYYDMDVWGQGTTVTVSS chain 2: DIQMTQSPSSLSASVGDRVTITCRASQSIRRYLNWFQQRPGKAPKLLIYEVSNLPTGVPSRFSGSGSGTDFTLTISGLRPEDFATYFCQQNFRTFGPGTKVDIK | inactive: 0.317 | inactive: 0.261
antibody 4D02 (protein) chain 1: VQLVESGGGLIQPGGSLRLSCAASGFTVSSNYVSWVRQAPGRGLEWVSIIYSDGRTYYADSVKGRFNISRDNSKNTLYLQMNSLRAEDTAVYYCARDFYGDYYNNGMDVWGQGTTVTVSS chain 2: DIQMTQSPSSLSASVGDRVTITCRAGQSISNYLNWYQQKPGRAPKLLISGASSLQAGVPSRFSGSGSGTDFTLTISSLQREDFATYYCQQSYSIPQTFGQGTKVEIK | inactive: -0.623 | inactive: -0.638
antibody 2F01 (protein) chain 1: ESGGGLIQPGGSLRLSCVASGFTINSFAMSWVRQAPGKGLQWVSSVNEQATYYAESVEGRFTISRDRSRNTLFLQMNYLRVEDTATYYCANDVDGDAGTWFESWGQGALVTVSS chain 2: EIVMTQSPDTLSVSPGERATLFCRASQNVKSNLTWYQQRPGQPPRLLIFGASTRATGVPARFSGSGSGTEFTLSISSLQSEDSAIYSCQQYNDWPPTFGQGTKVEIK | inactive: 0.133 | inactive: -0.263
antibody 3G02 (protein) chain 1: VQLVESGGGVVQPGGSLRLSCAASSFTFRNYAMFWVRQAPGKGLEWLALIRNDGSEQNYAEVVKGRFTISRDNSKKTLYLQMNSLRPEDTAVYYCARNHLYAAYNSYYYGMDDWGQGTTVTVSS chain 2: DIQMTQSPSSLSTSVGDRVTITCQASQGIRNFLNWYQQKPGKAPKLLIYDASILETGIPSRFSGSGSGTDFTFTINSLQPEDIAIYYCQQYVNFPLTFGGGTKVEIK | inactive: 1.05 | inactive: 0.338
K77-1D03 (protein) chain 1: EVQLFESGGDLIQPGGSLRLSCAAFAFTFSSYAMTWVRQAPGKGLEWVSGISGSGYRTHYADSVKGRFTISRDNSKNTLYLQMNSLRGEDTAVYYCAKVSSDFTIYGEGYYYYDMDVWGQGTTVTVSS chain 2: DIQMTQSPSSLSASVGDRVTIACRASQYIRTYLNWYQQKIGKAPKALIYGASDLESGVPSRFSGSGSGTDFNLTISSLQPEDFATYYCQQTYTTPPFTFGPGTKVEIK | inactive: 0.228 | inactive: 0.199
K77-2D01 (protein) chain 1: QVQLVQSGAEVKKPGASVKVSCKASGYTFTDHHMHWVRQAPGQGLEWMGMINPSAASITYAPRFLGRVTMTRDTSTSTVYMELSSLRPEDTAVYYCAKVGIAVTGRGPHFYYYGLDVWGQGTTVTVSS chain 2: EIVLTQSPGTLSLSPGERATLSCRASQSVSDSYLAWYQHKPGQAPRLLMYGASSRATGIPERFSGSGSGTDFTLTISRLEPEDFAVYYCHRHGGVFGGGTKVEIK | inactive: -0.267 | inactive: -0.189
W85-2B12 (protein) chain 1: EVQLVESGGGVVQPGRSLRLSCAVSGFTFSSFAMHWVRQAPGKGLEWMAVISYNGINKDYADSVKGRFTISRDNSKNTLYLQVSSLRPEDTAVYYCASGQRQFDYFPDGDYYYFDSWGQGTLVTVSS chain 2: QSALTQPASVSGSPGQSITISCTGTSSDVGGYNYVSWYQQHPGKAPKLMIYEVNNRPSGVSNRFSGSKSGNTASLTISGLRAEDEADYYCSSYTSTSPLVFGGGTKLTVL | inactive: -0.648 | inactive: -0.694
01.o.02 (protein) chain 1: QVQLQESGPGLVKPSETLSLICTVSSYSITSGYYWGWIRQPPGKGLEWIGNVYHSGSTHYNPSLKSRVTISLDTPKKQVSLRLSSLTAADTAVYYCTHSIIGNGRDFWGQGTLVAVSS chain 2: EIVMTQAPGTLSWSPGERTTLSGRASQQVSIIYLAWYQQRPEQAPSLIMYGASSRARGIPDRFSGRGLGTDFTLIISRQEPEDSTEYCCQQCGSTYLTFGQGTKVEIK | inactive: 0.628 | inactive: 1.88
antibody 3E01 (protein) chain 1: VQLVQSGAEVKKPGASVKVSCKTSGYTFTIYEINWVRQATGQGLEWMGTMNPNSATTGSAQKFQGRLTMTGNTSLRTTYMELSSLTSEDTAVYYCARLVSCGGDCYYFDSWGQGTLVTVSS chain 2: SYELTQAPSVSVAPGQTARIPCGGNNIGTKSVHWYQQRPGQAPVLVVYDDSDRPSGIPERFSGSNSGNTATLTISRVEAGDEADYYCQVWDSSGDQFGGGTKLTVL | inactive: -0.498 | inactive: -0.441
antibody 2B03 (protein) chain 1: QVQLQESGPGLVKPSQTLSLTCTVSGASVGSGTYYWTWIRQRPGTGLEWIGYIYDSGTTYYNPSLRSRLIISSDTSTNHFSLNLKSVTAADTAVYYCARVGHGDYVGYLDYWGQGILVTVSS chain 2: SYELTQPLSVSVALGQTARITCGGSNIGSKNVHWYQQKPGQAPILAIYRDNNRPSGIPERFSGSNSGNTATLIISRAQAGDEADYYCQVWDTSIAVVFGGGTKLTVL | inactive: 0.139 | inactive: -0.00774
56.j.01 (protein) chain 1: QVQLVQSGAEMKKPGASVKVSCKASGYTFTNYYIHWMRQAPAQGLEWMGIINPSDDSTTYAQRFQGRVTMTSDTSTSTVYMELSSLRSEDTAVYYCAKLGYWTDDYWGQGTLVTVSS chain 2: DIQMTQSPSSLSASVGDRVTITCRASQGIGNYLAWYQQKPGKVPKLLIFAASTLQSGVPSRFSGSGSGTDFTLTISSLQPEDVATYYCQIFNSALGPLTFGGGTKVEI | inactive: 0.572 | active: 343
antibody 3F05 (protein) chain 1: VQLVESGGGVVQPGRSLRLSCAASGFTFMSYNIHWFRQAPGKDLQWVAVVWYEGSTKFYGDSVKGRLTISRDNSKDMVYLQMNNLRAEDTAIYYCAREAVSPGPDDIYFGMDVWGHGTTVTVSS chain 2: EIVLTQSPATLSLSPGERATLSCRASQSVGSYLAWYQQKPGQAPRLLIYDVSNRATGIPARFIGSGSGTDFTLTISSLEPEDSAVYYCQQRSNWPPGVTFGPGTKVDIK | inactive: -0.646 | inactive: -0.0501
R95-2A04 (protein) chain 1: QVQLEQSGAEVKKPGASMKVSCKTSGYSFNAYFIHWVRQAPGQGLEWMGRINPTSGGTDYAQRFQDRVTMTRDTSINTAYMELSRLKSDDSALYYCTRALYYDSIAYYFDYWGRGTLVTVSS chain 2: SYELTQPPSVSVSPGQTASITCSGDELGKKYACWYQQKPGQSPAMVIYGDNKRPSGIPERFSGSNSGDTATLTISGTQAVDEAGYYCQTWDSRTAVFGTGTKV | inactive: 0.164 | inactive: -0.157

From the supplement of paper PMC11383711
